# Data published in the supplement of paper PMC8728848.
# This is one part of the list.
# What was measured:
# Assay in all cases: glycan array binding signal (z-score within array); higher = stronger binding
# Details in all cases: glycan notation: IUPAC condensed, linker removed
# [1] = target: GlcNAc(b1-2)Gal(b1-3)GalNAc
# Procedure, shortened: (§1)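 Glycan array data came from 3228 arrays in the Consortium for Functional Glycomics database, and only arrays with an available protein sequence were kept. Glycan names were put into IUPAC-condensed notation, and columns mapping to the same glycan were averaged. The binding signal is a within-array Z-score, averaged across arrays of one protein sequence run at different concentrations or buffers and across linkers. A negative Z-score can be read as non-binding.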
# [2] = target: GlcNAc(b1-2)Man(a1-3)[GlcNAc(b1-2)Man(a1-6)]Man(b1-4)GlcNAc(b1-4)GlcNAc
# Procedure, shortened: as §1
# [3] = target: GlcNAc(b1-2)Man(a1-3)[GlcNAc(b1-2)Man(a1-6)]Man(b1-4)GlcNAc(b1-4)[Fuc(a1-6)]GlcNAc
# Procedure, shortened: as §1
# [4] = target: GlcNAc(b1-2)Man(a1-3)[GlcNAc(b1-4)][GlcNAc(b1-2)Man(a1-6)]Man(b1-4)GlcNAc(b1-4)GlcNAc
# Procedure, shortened: as §1
# [5] = target: GlcNAc(b1-2)Man(a1-3)[GlcNAc(b1-4)][GlcNAc(b1-2)Man(a1-6)]Man(b1-4)GlcNAc(b1-4)[Fuc(a1-6)]GlcNAc
# Procedure, shortened: as §1
# [6] = target: GlcNAc(b1-2)[GlcNAc(b1-4)]Man(a1-3)[GlcNAc(b1-2)Man(a1-6)]Man(b1-4)GlcNAc(b1-4)GlcNAc
# Procedure, shortened: as §1
# [7] = target: GlcNAc(b1-2)[GlcNAc(b1-4)]Man(a1-3)[GlcNAc(b1-4)][GlcNAc(b1-2)Man(a1-6)]Man(b1-4)GlcNAc(b1-4)GlcNAc
# Procedure, shortened: as §1
# [8] = target: GlcNAc(b1-2)[GlcNAc(b1-4)]Man(a1-3)[GlcNAc(b1-4)][GlcNAc(b1-2)[GlcNAc(b1-6)]Man(a1-6)]Man(b1-4)GlcNAc(b1-4)GlcNAc
# Procedure, shortened: as §1
# [9] = target: GlcNAc(b1-2)[GlcNAc(b1-4)]Man(a1-3)[GlcNAc(b1-4)][GlcNAc(b1-2)[GlcNAc(b1-6)]Man(a1-6)]Man(b1-4)GlcNAc(b1-4)[Fuc(a1-6)]GlcNAc
# Procedure, shortened: as §1
# [10] = target: GlcNAc(b1-2)[GlcNAc(b1-6)]Man(a1-6)[GlcNAc(b1-2)Man(a1-3)]Man(b1-4)GlcNAc(b1-4)GlcNAc
# Procedure, shortened: as §1
# [11] = target: GlcNAc(b1-2)[GlcNAc(b1-6)]Man(a1-6)[GlcNAc(b1-2)Man(a1-3)]Man(b1-4)GlcNAc(b1-4)[Fuc(a1-6)]GlcNAc
# Procedure, shortened: as §1
# [12] = target: GlcNAc(b1-2)[GlcNAc(b1-6)]Man(a1-6)[GlcNAc(b1-4)][GlcNAc(b1-2)Man(a1-3)]Man(b1-4)GlcNAc(b1-4)GlcNAc
# Procedure, shortened: as §1
# GlcNAc(b1-3)Fuc = target: GlcNAc(b1-3)Fuc
# Procedure, shortened: as §1
# GlcNAc(b1-3)Gal = target: GlcNAc(b1-3)Gal
# Procedure, shortened: as §1
# [13] = target: GlcNAc(b1-3)Gal(b1-3)GalNAc
# Procedure, shortened: as §1
# GlcNAc(b1-3)Gal(b1-4)Glc = target: GlcNAc(b1-3)Gal(b1-4)Glc
# Procedure, shortened: as §1
# [14] = target: GlcNAc(b1-3)Gal(b1-4)GlcNAc
# Procedure, shortened: as §1
# [15] = target: GlcNAc(b1-3)Gal(b1-4)GlcNAc(b1-2)Man(a1-3)[GlcNAc(b1-3)Gal(b1-4)GlcNAc(b1-2)Man(a1-6)]Man(b1-4)GlcNAc(b1-4)GlcNAc
# Procedure, shortened: as §1
# [16] = target: GlcNAc(b1-3)Gal(b1-4)GlcNAc(b1-2)Man(a1-3)[GlcNAc(b1-3)Gal(b1-4)GlcNAc(b1-2)Man(a1-6)]Man(b1-4)GlcNAc(b1-4)[Fuc(a1-6)]GlcNAc
# Procedure, shortened: as §1
# [17] = target: GlcNAc(b1-3)Gal(b1-4)GlcNAc(b1-2)[GlcNAc(b1-3)Gal(b1-4)GlcNAc(b1-6)]Man(a1-6)[GlcNAc(b1-3)Gal(b1-4)GlcNAc(b1-2)Man(a1-3)]Man(b1-4)GlcNAc(b1-4)GlcNAc
# Procedure, shortened: as §1
# [18] = target: GlcNAc(b1-3)Gal(b1-4)GlcNAc(b1-3)Gal(b1-4)GlcNAc
# Procedure, shortened: as §1
# [19] = target: GlcNAc(b1-3)Gal(b1-4)GlcNAc(b1-3)Gal(b1-4)GlcNAc(b1-2)Man(a1-3)[GlcNAc(b1-3)Gal(b1-4)GlcNAc(b1-3)Gal(b1-4)GlcNAc(b1-2)Man(a1-6)]Man(b1-4)GlcNAc(b1-4)GlcNAc
# Procedure, shortened: as §1
# [20] = target: GlcNAc(b1-3)Gal(b1-4)GlcNAc(b1-3)Gal(b1-4)GlcNAc(b1-2)Man(a1-3)[GlcNAc(b1-3)Gal(b1-4)GlcNAc(b1-3)Gal(b1-4)GlcNAc(b1-2)Man(a1-6)]Man(b1-4)GlcNAc(b1-4)[Fuc(a1-6)]GlcNAc
# Procedure, shortened: as §1
# [21] = target: GlcNAc(b1-3)Gal(b1-4)GlcNAc(b1-3)Gal(b1-4)GlcNAc(b1-2)[GlcNAc(b1-3)Gal(b1-4)GlcNAc(b1-3)Gal(b1-4)GlcNAc(b1-6)]Man(a1-6)[GlcNAc(b1-3)Gal(b1-4)GlcNAc(b1-3)Gal(b1-4)GlcNAc(b1-2)Man(a1-3)]Man(b1-4)GlcNAc(b1-4)[Fuc(a1-6)]GlcNAc
# Procedure, shortened: as §1
# [22] = target: GlcNAc(b1-3)Gal(b1-4)GlcNAc(b1-3)Gal(b1-4)GlcNAc(b1-3)Gal(b1-4)GlcNAc(b1-2)Man(a1-3)[GlcNAc(b1-3)Gal(b1-4)GlcNAc(b1-3)Gal(b1-4)GlcNAc(b1-3)Gal(b1-4)GlcNAc(b1-2)Man(a1-6)]Man(b1-4)GlcNAc(b1-4)GlcNAc
# Procedure, shortened: as §1
# [23] = target: GlcNAc(b1-3)Gal(b1-4)GlcNAc(b1-3)Gal(b1-4)GlcNAc(b1-3)Gal(b1-4)GlcNAc(b1-2)Man(a1-3)[GlcNAc(b1-3)Gal(b1-4)GlcNAc(b1-3)Gal(b1-4)GlcNAc(b1-3)Gal(b1-4)GlcNAc(b1-2)Man(a1-6)]Man(b1-4)GlcNAc(b1-4)[Fuc(a1-6)]GlcNAc
# Procedure, shortened: as §1
# [24] = target: GlcNAc(b1-3)Gal(b1-4)GlcNAc(b1-3)Gal(b1-4)GlcNAc(b1-3)Gal(b1-4)GlcNAc(b1-2)[GlcNAc(b1-3)Gal(b1-4)GlcNAc(b1-3)Gal(b1-4)GlcNAc(b1-3)Gal(b1-4)GlcNAc(b1-6)]Man(a1-6)[GlcNAc(b1-3)Gal(b1-4)GlcNAc(b1-3)Gal(b1-4)GlcNAc(b1-3)Gal(b1-4)GlcNAc(b1-2)Man(a1-3)]Man(b1-4)GlcNAc(b1-4)[Fuc(a1-6)]GlcNAc
# Procedure, shortened: as §1
# [25] = target: GlcNAc(b1-3)Gal(b1-4)GlcNAc(b1-3)Gal(b1-4)GlcNAc(b1-3)Gal(b1-4)GlcNAc(b1-3)Gal(b1-4)GlcNAc(b1-2)Man(a1-3)[GlcNAc(b1-3)Gal(b1-4)GlcNAc(b1-3)Gal(b1-4)GlcNAc(b1-3)Gal(b1-4)GlcNAc(b1-3)Gal(b1-4)GlcNAc(b1-2)Man(a1-6)]Man(b1-4)GlcNAc(b1-4)GlcNAc
# Procedure, shortened: as §1
# [26] = target: GlcNAc(b1-3)Gal(b1-4)GlcNAc(b1-3)Gal(b1-4)GlcNAc(b1-3)Gal(b1-4)GlcNAc(b1-3)Gal(b1-4)GlcNAc(b1-2)Man(a1-3)[GlcNAc(b1-3)Gal(b1-4)GlcNAc(b1-3)Gal(b1-4)GlcNAc(b1-3)Gal(b1-4)GlcNAc(b1-3)Gal(b1-4)GlcNAc(b1-2)Man(a1-6)]Man(b1-4)GlcNAc(b1-4)[Fuc(a1-6)]GlcNAc
# Procedure, shortened: as §1
# [27] = target: GlcNAc(b1-3)Gal(b1-4)GlcNAc(b1-3)Gal(b1-4)GlcNAc(b1-3)Gal(b1-4)GlcNAc(b1-3)Gal(b1-4)GlcNAc(b1-2)[GlcNAc(b1-3)Gal(b1-4)GlcNAc(b1-3)Gal(b1-4)GlcNAc(b1-3)Gal(b1-4)GlcNAc(b1-3)Gal(b1-4)GlcNAc(b1-6)]Man(a1-6)[GlcNAc(b1-3)Gal(b1-4)GlcNAc(b1-3)Gal(b1-4)GlcNAc(b1-3)Gal(b1-4)GlcNAc(b1-3)Gal(b1-4)GlcNAc(b1-2)Man(a1-3)]Man(b1-4)GlcNAc(b1-4)[Fuc(a1-6)]GlcNAc
# Procedure, shortened: as §1
# [28] = target: GlcNAc(b1-3)Gal(b1-4)GlcNAc(b1-3)Gal(b1-4)GlcNAc(b1-3)GalNAc
# Procedure, shortened: as §1
# [29] = target: GlcNAc(b1-3)Gal(b1-4)GlcNAc(b1-3)GalNAc
# Procedure, shortened: as §1
# [30] = target: GlcNAc(b1-3)Gal(b1-4)GlcNAc(b1-3)[GlcNAc(b1-3)Gal(b1-4)GlcNAc(b1-3)]GalNAc
# Procedure, shortened: as §1
# [31] = target: GlcNAc(b1-3)Gal(b1-4)GlcNAc(b1-6)[Gal(b1-3)]GalNAc
# Procedure, shortened: as §1
# [32] = target: GlcNAc(b1-3)Gal(b1-4)GlcNAc(b1-6)[GlcNAc(b1-3)Gal(b1-3)]GalNAc
# Procedure, shortened: as §1
# [33] = target: GlcNAc(b1-3)Gal(b1-4)GlcNAc(b1-6)[GlcNAc(b1-3)]Gal(b1-4)GlcNAc
# Procedure, shortened: as §1
# GlcNAc(b1-3)GalNAc = target: GlcNAc(b1-3)GalNAc
# Procedure, shortened: as §1
binder,measurement,setting,value
FGFR2-Fc (protein) MVNVTDAISSGDDEDDTDGAEDFVSENSNNKRAPYWTNTEKMEKRLHAVPAANTVKFRCPAGGNPMPTMRWLKNGKEFKQEHRIGGYKVRNQHWSLIMESVVPSDKGNYTCVVENEYGSINHTYHLDVVERSPHRPILQAGLPANASTVVGGDVEFVCKVYSDAQPHIQWIKHVEKNGSKYGPDGLPYLKVLKHSGINSSNAEVLALFNVTEADAGEYICKVSNYIGQANQSAWLTVLPKQQAPGREKEITASPDYLETRPLEQKLISEEDLAANDILDYKDDDDKV,glycan array binding signal (z-score),[1],0.468
same,glycan array binding signal (z-score),[2],-0.082
same,glycan array binding signal (z-score),[3],-0.004
same,glycan array binding signal (z-score),[4],-0.754
same,glycan array binding signal (z-score),[5],-0.284
same,glycan array binding signal (z-score),[6],0.06
same,glycan array binding signal (z-score),[7],-0.277
same,glycan array binding signal (z-score),[8],-0.537
same,glycan array binding signal (z-score),[9],0.045
same,glycan array binding signal (z-score),[10],-0.124
same,glycan array binding signal (z-score),[11],-0.003
same,glycan array binding signal (z-score),[12],-0.09
same,glycan array binding signal (z-score),GlcNAc(b1-3)Fuc,0.448
same,glycan array binding signal (z-score),GlcNAc(b1-3)Gal,-0.461
same,glycan array binding signal (z-score),[13],-0.02
same,glycan array binding signal (z-score),GlcNAc(b1-3)Gal(b1-4)Glc,0.11
same,glycan array binding signal (z-score),[14],-0.231
same,glycan array binding signal (z-score),[15],-0.118
same,glycan array binding signal (z-score),[16],-0.197
same,glycan array binding signal (z-score),[17],0.186
same,glycan array binding signal (z-score),[18],0.276
same,glycan array binding signal (z-score),[19],0.141
same,glycan array binding signal (z-score),[20],-0.077
same,glycan array binding signal (z-score),[21],0.724
same,glycan array binding signal (z-score),[22],0.005
same,glycan array binding signal (z-score),[23],0.272
same,glycan array binding signal (z-score),[24],0.322
same,glycan array binding signal (z-score),[25],0.739
same,glycan array binding signal (z-score),[26],0.274
same,glycan array binding signal (z-score),[27],0.822
same,glycan array binding signal (z-score),[28],0.549
same,glycan array binding signal (z-score),[29],-0.356
same,glycan array binding signal (z-score),[30],-0.174
same,glycan array binding signal (z-score),[31],-0.199
same,glycan array binding signal (z-score),[32],-0.384
same,glycan array binding signal (z-score),[33],-0.146
same,glycan array binding signal (z-score),GlcNAc(b1-3)GalNAc,-0.187
